Measured values: US20240374736A1, “INHALED LIQUID FOR THE TREATMENT OF RESPIRATORY INFECTIONS IN HUMANS CAUSED BY PATHOGENS RESISTANT TO ANTIBIOTICS” (priority 2023, published 2024)

Assays:
Cryptococcus = assay: In vitro test, zone diameter on Müler-Hinton-Agar; format: cell-based; conditions: amount used: novel compound 0.05 mL, Cephalosporin 0.1 mL, Ampicillin 0.2 mL
Candida = assay: In vitro test, zone diameter on Müler-Hinton-Agar; format: cell-based; conditions: amount used: novel compound 0.05 mL, Cephalosporin 0.1 mL, Ampicillin 0.2 mL
Micrococcus = assay: In vitro test, zone diameter on Müler-Hinton-Agar; format: cell-based; conditions: amount used: novel compound 0.05 mL, Cephalosporin 0.1 mL, Ampicillin 0.2 mL
Pasteurella = assay: In vitro test, zone diameter on Müler-Hinton-Agar; format: cell-based; conditions: amount used: novel compound 0.05 mL, Cephalosporin 0.1 mL, Ampicillin 0.2 mL
Campylobacter = assay: In vitro test, zone diameter on Müler-Hinton-Agar; format: cell-based; conditions: amount used: novel compound 0.05 mL, Cephalosporin 0.1 mL, Ampicillin 0.2 mL
rats = conditions: p.o., 2,250 μL/kg
humans = assay: Clinical pilot study of side effects on 80 humans (inhalation)
[1] = inhaled 10 mL of 2%/30 kg body weight every 8 h for 7 days

CC1(C)S[C@@H]2[C@H](NC(=O)[C@H](N)c3ccccc3)C(=O)N2[C@H]1C(=O)O [Ampicilin, Ampicillin]
R (evaluation of the results by zone diameter) (Cryptococcus): R (0 mm-4 mm: resistant: R) | zone diameter (Cryptococcus): 0 mm | R (evaluation of the results by zone diameter) (Candida): R (0 mm-4 mm: resistant: R) | zone diameter (Candida): 4 mm | R (evaluation of the results by zone diameter) (Micrococcus): R (0 mm-4 mm: resistant: R) | zone diameter (Micrococcus): 0 mm | R (evaluation of the results by zone diameter) (Pasteurella): MS (5 mm-9 mm: moderately sensitive: MS) | zone diameter (Pasteurella): 5 mm | R (evaluation of the results by zone diameter) (Campylobacter): MS (5 mm-9 mm: moderately sensitive: MS) | zone diameter (Campylobacter): 7 mm

C=CCc1ccc(O)c(OC)c1.CCN(CC)CC(=O)Nc1c(C)cccc1C [novel compound, N-[N′-(carboxymethylenyl-2,6-dimethyl-aniline)-N,N-diethylammonium]-[2′-methoxy-4′-(2′-propenyl)]-phenolate]
R (evaluation of the results by zone diameter) (Cryptococcus): ES (21 mm and more: extremely sensitive: ES) | breathing and cardiac functions (rats): regular | time after which discomfort symptoms disappeared (rats): 1 to 3 min | R (evaluation of the results by zone diameter) (Candida): ES (21 mm and more: extremely sensitive: ES) | R (evaluation of the results by zone diameter) (Micrococcus): ES (21 mm and more: extremely sensitive: ES) | coughing (humans; at the beginning of the test): Sporadic coughing was recorded in some participants | respiratory function (humans; during the clinical study): not disturbed | pulse frequency and blood pressure (humans; during the inhalation): not significantly altered | electrocardiography measurements (humans; during the intake): regular without any pathological and irregular oscillations | C Reactive Protein (CRP) measurements (humans; during the study): no inflammation was developed | bronchospasms (humans; during the test): No bronchospasms were recorded | dyspnea (humans; during the test): No dyspnea was recorded | kidney functions (urine and blood parameters) (humans; for the period of testing): did not have any negative effects on the kidneys | allergy symptoms (humans; [1]): no allergy symptoms | tolerance (humans; [1]): showed tolerance | R (evaluation of the results by zone diameter) (Pasteurella): ES (21 mm and more: extremely sensitive: ES) | R (evaluation of the results by zone diameter) (Campylobacter): ES (21 mm and more: extremely sensitive: ES)
